# Ends that are not written are not given here. Peptide text beside a SMILES is read from it. * marks the point of attachment. X4 = COCCOCCOCCOCCOCCOCCOCCOCCOCCOCCOCCOCCOCCOCCOCCOCCOCCOCCOCCOCCOCCOCCOCCOCCOCCOCCOCCOCCOCCOCCOCCOCCOCCOCCOCCOCCOCCOCCOCCOCCOCCOCCOCCOCCOCCOCCOCCOCCNC(=O)CCN1C(=O)CC(*)C1=O; X3 = COCCOCCOCCOCCOCCOCCOCCOCCOCCOCCOCCOCCOCCOCCOCCOCCOCCOCCOCCOCCOCCOCCOCCOCCOCCOCCOCCOCCOCCOCCOCCOCCOCCOCCOCCOCCNC(=O)CCN1C(=O)CC(*)C1=O; X2 = COCCOCCOCCOCCOCCOCCOCCOCCOCCOCCOCCOCCOCCOCCOCCOCCOCCOCCOCCOCCOCCOCCOCCOCCNC(=O)CCN1C(=O)CC(*)C1=O; X1 = COCCOCCOCCOCCOCCOCCOCCOCCOCCOCCOCCOCCNC(=O)CCN1C(=O)CC(*)C1=O
# Tested on: S. enteric, 6539 (Se)
# Conditions: not given
row,Molecule,MIC Se
1,CC[C@H](C)[C@H](NC(=O)[C@H](Cc1c[nH]cn1)NC(=O)CNC(=O)CN)C(=O)N[C@@H](CCCNC(=N)N)C(=O)N[C@@H](CCCNC(=N)N)C(=O)N[C@H](C(=O)N[C@H](C(=O)N[C@@H](CCCNC(=N)N)C(=O)N[C@@H](CCCCN)C(=O)N[C@H](C(=O)N[C@H](C(=O)N[C@@H](Cc1c[nH]cn1)C(=O)N[C@H](C(=O)N[C@H](C(=O)N[C@@H](CCCCN)C(=O)N[C@@H](CCCCN)C(=O)NCC(=O)NCC(=O)N[C@@H](CSC1CC(=O)N(CCC(=O)NCCOCCOCCOCCOCCOCCOCCOCCOCCOCCOCCOCCOCCOCCOCCOCCOCCOCCOCCOCCOCCOCCOCCOCCOCCOCCOCCOCCOCCOCCOCCOCCOCCOCCOCCOCCOC)C1=O)C(=O)O)[C@@H](C)CC)[C@@H](C)CC)[C@@H](C)CC)[C@@H](C)CC)[C@@H](C)CC)[C@@H](C)CC (stereo partly shown) [PEP 318 PEG 36] (H-GGHIRRIIRKIIHIIKKGGC(X3)-OH; C-terminus assumed),7.9 µM
2,"GGHWRWYCRGGK [PEP 322, GGHWRWYCRGGK]",2.7 µM
3,"GGHGVRRFPWWWPFLRR [PEP 189, GGHGVRRFPWWWPFLRR]",7.2 µM
4,CC[C@H](C)[C@H](NC(=O)[C@H](CCCCN)NC(=O)[C@H](Cc1c[nH]c2ccccc12)NC(=O)[C@H](CCCNC(=N)N)NC(=O)[C@H](CCCNC(=N)N)NC(=O)[C@H](Cc1c[nH]cn1)NC(=O)CNC(=O)CN)C(=O)N[C@H](C(=O)N[C@H](C(=O)N[C@H](C(=O)N[C@@H](CCCNC(=N)N)C(=O)N[C@@H](Cc1c[nH]c2ccccc12)C(=O)N[C@@H](CCCNC(=N)N)C(=O)N[C@@H](CCCNC(=N)N)C(=O)NCC(=O)NCC(=O)N[C@@H](CSC1CC(=O)N(CCC(=O)NCCOCCOCCOCCOCCOCCOCCOCCOCCOCCOCCOCCOCCOCCOCCOCCOCCOCCOCCOCCOCCOCCOCCOCCOC)C1=O)C(=O)O)[C@@H](C)CC)C(C)C)C(C)C (stereo partly shown) [PEP 314 PEG 24] (H-GGHRRWKIVVIRWRRGGC(X2)-OH; C-terminus assumed),9.3 µM
5,CC[C@H](C)[C@H](NC(=O)[C@H](CCCCN)NC(=O)[C@H](Cc1c[nH]c2ccccc12)NC(=O)[C@H](CCCNC(=N)N)NC(=O)[C@H](CCCNC(=N)N)NC(=O)[C@H](Cc1c[nH]cn1)NC(=O)CNC(=O)CN)C(=O)N[C@H](C(=O)N[C@H](C(=O)N[C@H](C(=O)N[C@@H](CCCNC(=N)N)C(=O)N[C@@H](Cc1c[nH]c2ccccc12)C(=O)N[C@@H](CCCNC(=N)N)C(=O)N[C@@H](CCCNC(=N)N)C(=O)NCC(=O)NCC(=O)N[C@@H](CSC1CC(=O)N(CCC(=O)NCCOCCOCCOCCOCCOCCOCCOCCOCCOCCOCCOCCOC)C1=O)C(=O)O)[C@@H](C)CC)C(C)C)C(C)C (stereo partly shown) [PEP 314 PEG 12] (H-GGHRRWKIVVIRWRRGGC(X1)-OH; C-terminus assumed),5.5 µM
6,GGHIRRIIRKIIHIIKKGGC [PEP 318],3.5 µM
7,"GGHGRRWKIVVIRWRRGGC [PEP 321, GGHGRRWKIVVIRWRRGGC]",7.1 µM
8,"GGHGIRRIIRKIIHIIKK-NH2 (C-terminus assumed) [PEP 188, GGHGIRRIIRKIIHIIKK]",0.9 µM
9,"GGHGWRWYCR [PEP 204, GGHGWRWYCR]",6.3 µM
10,"GGHGWRWYCRGGK [PEP 323, GGHGWRWYCRGGK]",5.3 µM
11,CC[C@H](C)[C@H](NC(=O)[C@H](Cc1c[nH]cn1)NC(=O)CNC(=O)CN)C(=O)N[C@@H](CCCNC(=N)N)C(=O)N[C@@H](CCCNC(=N)N)C(=O)N[C@H](C(=O)N[C@H](C(=O)N[C@@H](CCCNC(=N)N)C(=O)N[C@@H](CCCCN)C(=O)N[C@H](C(=O)N[C@H](C(=O)N[C@@H](Cc1c[nH]cn1)C(=O)N[C@H](C(=O)N[C@H](C(=O)N[C@@H](CCCCN)C(=O)N[C@@H](CCCCN)C(=O)NCC(=O)NCC(=O)N[C@@H](CSC1CC(=O)N(CCC(=O)NCCOCCOCCOCCOCCOCCOCCOCCOCCOCCOCCOCCOCCOCCOCCOCCOCCOCCOCCOCCOCCOCCOCCOCCOC)C1=O)C(=O)O)[C@@H](C)CC)[C@@H](C)CC)[C@@H](C)CC)[C@@H](C)CC)[C@@H](C)CC)[C@@H](C)CC (stereo partly shown) [PEP 318 PEG 24] (H-GGHIRRIIRKIIHIIKKGGC(X2)-OH; C-terminus assumed),4.6 µM
12,"GGHGILAWKWAWWAWRR [PEP 190, GGHGILAWKWAWWAWRR]",15 µM
13,CC[C@H](C)[C@H](NC(=O)[C@H](Cc1c[nH]cn1)NC(=O)CNC(=O)CN)C(=O)N[C@@H](CCCNC(=N)N)C(=O)N[C@@H](CCCNC(=N)N)C(=O)N[C@H](C(=O)N[C@H](C(=O)N[C@@H](CCCNC(=N)N)C(=O)N[C@@H](CCCCN)C(=O)N[C@H](C(=O)N[C@H](C(=O)N[C@@H](Cc1c[nH]cn1)C(=O)N[C@H](C(=O)N[C@H](C(=O)N[C@@H](CCCCN)C(=O)N[C@@H](CCCCN)C(=O)NCC(=O)NCC(=O)N[C@@H](CSC1CC(=O)N(CCC(=O)NCCOCCOCCOCCOCCOCCOCCOCCOCCOCCOCCOCCOCCOCCOCCOCCOCCOCCOCCOCCOCCOCCOCCOCCOCCOCCOCCOCCOCCOCCOCCOCCOCCOCCOCCOCCOCCOCCOCCOCCOCCOCCOCCOCCOCCOCCOCCOCCOC)C1=O)C(=O)O)[C@@H](C)CC)[C@@H](C)CC)[C@@H](C)CC)[C@@H](C)CC)[C@@H](C)CC)[C@@H](C)CC (stereo partly shown) [PEP 318 PEG 48] (H-GGHIRRIIRKIIHIIKKGGC(X4)-OH; C-terminus assumed),7 µM
14,CC(C)C[C@H](NC(=O)[C@H](CCCNC(=N)N)NC(=O)[C@H](CCC(N)=O)NC(=O)[C@H](CCCCN)NC(=O)[C@@H](NC(=O)[C@H](CCCCN)NC(=O)[C@H](CCCNC(=N)N)NC(=O)[C@H](CC(C)C)NC(=O)[C@H](CC(N)=O)NC(=O)[C@H](Cc1ccccc1)NC(=O)[C@H](Cc1ccccc1)NC(=O)[C@H](CC(C)C)NC(=O)[C@H](CCCCN)NC(=O)[C@H](CCCNC(=N)N)NC(=O)[C@H](CCC(N)=O)NC(=O)CNC(=O)[C@H](Cc1c[nH]cn1)NC(=O)CNC(=O)CN)[C@@H](C)O)C(=O)NCC(=O)N[C@@H](Cc1c[nH]c2ccccc12)C(=O)N[C@@H](Cc1ccccc1)C(=O)N[C@@H](CC(N)=O)C(=O)N[C@@H](CCC(N)=O)C(=O)N[C@@H](CS)C(=O)O [PEP 192],10.6 µM
15,"GGHRRWKIVVIRWRRGGC [PEP 314, GGHRRWKIVVIRWRRGGC]",3.7 µM
16,CC[C@H](C)[C@H](NC(=O)[C@H](Cc1c[nH]cn1)NC(=O)CNC(=O)CN)C(=O)N[C@@H](CCCNC(=N)N)C(=O)N[C@@H](CCCNC(=N)N)C(=O)N[C@H](C(=O)N[C@H](C(=O)N[C@@H](CCCNC(=N)N)C(=O)N[C@@H](CCCCN)C(=O)N[C@H](C(=O)N[C@H](C(=O)N[C@@H](Cc1c[nH]cn1)C(=O)N[C@H](C(=O)N[C@H](C(=O)N[C@@H](CCCCN)C(=O)N[C@@H](CCCCN)C(=O)NCC(=O)NCC(=O)N[C@@H](CSC1CC(=O)N(CCC(=O)NCCOCCOCCOCCOCCOCCOCCOCCOCCOCCOCCOCCOC)C1=O)C(=O)O)[C@@H](C)CC)[C@@H](C)CC)[C@@H](C)CC)[C@@H](C)CC)[C@@H](C)CC)[C@@H](C)CC (stereo partly shown) [PEP 318 PEG 12] (H-GGHIRRIIRKIIHIIKKGGC(X1)-OH; C-terminus assumed),5.4 µM
17,"GGHGRLARIVVIRVAR [PEP 191, GGHGRLARIVVIRVAR]",37 µM

# Same assay, conditions: Mueller Hinton Broth
row,Molecule,MIC Se
1,DOTA-Ampicillin [DOTAMP],10.6 µM
2,"GGHC-Amikacin (also: amikacin conjugated, site not given here) [GGHCAMIK]",16.7 µM

# — patent US8933016B2, “Metallodrugs having improved pharmacological properties and methods of manufacture and use thereof” (priority 2012, dated 2015)
